Test results from ChEMBL document CHEMBL1201862, “PubChem BioAssay data set” (2004).
Several values for one entry are separate records, joined by “and”; a condition that tells them apart may be missing. Equal values may be shown once.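 Cells were grown in 96-well plates and exposed to each compound for 48 hours at five concentrations; endpoints were interpolated linearly between bracketing concentrations, or set to the highest concentration if not reached. GI50 = concentration required for 50% inhibition of growth.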 Activity calls are given as the source filed them. No stated cut-off is given here; in the data, active = GI50 up to about 1.1 µM and inactive = higher. Bridge positions count the residues as written; N and C are the ends. Peptide text beside a SMILES is read from it. * marks the point of attachment. Cbz = O=C(OCc1ccccc1)*

Each compound was assayed on NCI-H322M (assay: NCI-60 cell line screen, 48 h).
With `CCC1(c2ccc(N3C(=O)c4cccc5cc([N+](=O)[O-])cc(c45)C3=O)cc2)CCC(=O)NC1=O` (stereo not given) the GI50 was inactive: > 44.4 µM. In the case of `COc1ccc(/C=C2\C(=O)N(C(=O)c3ccc(NC(C)=O)cc3)N=C2C)cc1`, the GI50 is reported as inactive: > 100 µM. For `Cc1ccc(NC(=O)CCc2nc(N)nc(N)c2-c2ccccc2)cc1C`, the GI50 was inactive: > 100 µM. For `Cc1c(N=C(S)Nc2ccc(Cl)cc2)c(=O)n(-c2ccccc2)n1C`, the GI50 was inactive: > 100 µM. `Cc1c(C(=O)OCc2ccccc2)[n+]([O-])c2cc(F)c(F)cc2[n+]1[O-]` was tested, and the GI50 was inactive: 2.58 µM. For `CNC(=O)C1CCCCNC(=O)CCC(NC(=O)OCc2ccccc2)C(=O)N1` (stereo not drawn) (Cbz-Glu-Lys-NHMe; lactam 1-2; configuration not given here), the GI50 was inactive: > 100 µM. `O=C(NCO)NCOCn1c(=O)n(CO)c(=O)n(CO)c1=O` was tested, and the GI50 was inactive: > 100 µM. `COc1cc(C(C)c2cc3c(cc2OCCO)OCO3)cc(OC)c1OC` (stereo not given) was tested, and the GI50 was inactive: 4.33 µM. `COc1ccc2c3c1O[C@]1(C)C34CCN(C)C(C2)C42C=C[C@@]1(OC)c1c(O)ccc(O)c12` was tested, and the GI50 was inactive: > 100 µM. In the case of `C/C(=N\NC(=S)N(C)C)c1nc2cccnc2[nH]1`, the GI50 is reported as active: 0.412 µM. In the case of `N#C/C(=C\c1ccccc1)C(=O)Nc1nnc(-c2ccccc2)o1`, the GI50 is reported as inactive: 42.7 µM. In the case of `C=CC(=C)CCC(Br)C(C)(C)Br` (stereo not given), the GI50 is reported as inactive: > 100 µM. With `CC(CCC[C@H](C)CO)[C@H]1[C@@H](O)C(O)C2[C@@H]3C[C@@H](O)C4(O)C[C@@H](O)CC[C@]4(C)C3CC[C@@]21C` (stereo not given in full) the GI50 was inactive: > 100 µM. In the case of `C[C@H]1[C@H]2[C@H](C[C@@]3(C)C4=CC[C@H]5C(C)(C)[C@@H](OC6OCC(O)C(O)C6O)CC[C@@]56C[C@@]46CC[C@]23C)O[C@@]2(O)[C@@H]1OC(C)(C)[C@H]2O` (stereo not given in full), the GI50 is reported as inactive: 4.17 µM. `CN(c1ccccc1)C(c1ccccc1)C(O)c1ccccc1` (stereo not given) was tested, and the GI50 was inactive: 18.4 µM. `Cc1c2cnccc2c(C)c2c1[nH]c1ccc(O)cc12` was tested, and the GI50 was inactive: 2.01 µM. For `CC(=O)O[C@H]1CC2C(C3CC[C@H](C(C)CCC(N)=O)[C@]31C)[C@H](OC(C)=O)C[C@@H]1CC3(CC[C@]21C)OOC1(CCC(C)CC1)OO3` (stereo not given in full), the GI50 was inactive: 4.76 µM and inactive: 8.51 µM. `N#Cc1c(-c2ccccc2)[nH]c2ccccc2c1=O` was tested, and the GI50 was inactive: > 100 µM. In the case of `CC(CC(=O)O)(CC(=O)O)c1ccccc1`, the GI50 is reported as inactive: > 100 µM. For `N/N=C(\CCN1CCCC1)CC(c1ccccc1)c1c(O)c2ccccc2oc1=O` (stereo not given), the GI50 was inactive: > 100 µM. `Sc1nnc(-c2ccnc(-c3nnc(S)[nH]3)c2)[nH]1` was tested, and the GI50 was inactive: > 100 µM. In the case of `CSc1nc2c(c(=O)[nH]1)N=C(c1ccccc1)CC(c1ccccc1)N2` (stereo not given), the GI50 is reported as inactive: 60.4 µM. In the case of `CCOC(=O)CCC(NC(=O)c1ccc(Oc2nc3ccccc3nc2C(=O)OCC)cc1)C(=O)OCC` (stereo not given), the GI50 is reported as inactive: > 100 µM. `Clc1ccccc1-c1nn2c(CCCCCCCCc3nnc4sc(-c5ccccc5Cl)nn34)nnc2s1` was tested, and the GI50 was inactive: > 100 µM. For `COc1ccc2c(c1)N1CCc3cc(OC)c(OC)cc3C1C2` (stereo not given), the GI50 was inactive: > 100 µM. In the case of `CNC(=S)N/N=C1\C(=O)N(CN2CCOCC2)c2ccc([N+](=O)[O-])cc21`, the GI50 is reported as inactive: 15.9 µM. With `Cc1cn2c(/C=C3/C(=O)Nc4ccccc43)c(C)nc2s1` the GI50 was inactive: 4.86 µM. With `O=C(NC12CC3CCC1CC(C3)C2)[C@@H]1CCCN1C(=O)OCc1ccccc1` (stereo not given in full) the GI50 was inactive: > 100 µM. `O=c1oc2ccccc2cc1-c1nc2ccccc2c(=O)[nH]1` was tested, and the GI50 was inactive: > 100 µM. In the case of `NC(=O)/C=C/C(=O)O`, the GI50 is reported as inactive: > 5000 µM. `CSc1n[n+]2c(s1)SCCC2` was tested, and the GI50 was inactive: > 100 µM. For `CC(C)Oc1c(N(Cc2ccccc2)c2ccccc2C2SCCCS2)c(=O)c1=O`, the GI50 was inactive: 6.92 µM. `CCOc1cc2c(cc1O)C=C[C@@H]1[C@@H]2CC[C@]2(C)[C@@H](O)CC[C@@H]12` was tested, and the GI50 was inactive: 3.52 µM. `O=C1Oc2ccccc2C(=O)/C1=C/NC(=S)NCc1ccccc1` was tested, and the GI50 was inactive: 73.3 µM. In the case of `COC1C(OC(=O)c2ccc(C)[nH]2)C(O)C(Oc2ccc3c(O)c(NC(=O)c4c[nH]c(C(=O)Nc5c(O)c6ccc(OC7OC(C)(C)C(OC)C(OC(=O)c8ccc(C)[nH]8)C7O)c(C)c6oc5=O)c4C)c(=O)oc3c2C)OC1(C)C` (stereo not given), the GI50 is reported as inactive: 2.8 µM. For `NC(N)=NCCC(O)(P(=O)(O)O)P(=O)(O)O`, the GI50 was inactive: > 100 µM. In the case of `COc1cc2c(c(OC)c1OC)[C@@H]1CCCCC[C@@H]1CCC2=O`, the GI50 is reported as inactive: > 100 µM. For `COCC1OC(Sc2ccccc2)C(O)C(OC)C1OC` (stereo not given), the GI50 was inactive: > 100 µM. In the case of `CCOC(=O)c1sc2c(c1OC(=O)c1ccccc1)c(=O)n(-c1ccccc1)c(=S)n2-c1ccccc1`, the GI50 is reported as inactive: 94.4 µM. For `O=C1CCC(c2ccc(Cl)cc2)=NN1c1nsc2ccccc12`, the GI50 was inactive: 34 µM. In the case of `O=c1oc2ccc3ccccc3c2cc1-c1nc2ccccc2o1`, the GI50 is reported as inactive: 28.1 µM. `Fc1cccc(Cl)c1/C=N\N=C1c2ccccc2-c2ccccc21` was tested, and the GI50 was inactive: > 100 µM. In the case of `CC(=O)OCc1cc2c(s1)C(=O)c1sccc1C2=O`, the GI50 is reported as active: 0.617 µM. With `COC(=O)c1ccc(C)cc1CC1Cc2ccc(C)cc2C1=O` (stereo not given) the GI50 was inactive: 35.1 µM. With `COc1ccc(/C=C\c2cc(OC)c(OC(C)=O)c(OC)c2)cc1` the GI50 was inactive: 18.4 µM. With `COc1ccc2c(c1)c1c(n2CCN2CCCCC2)-c2cccc(OC)c2CC1` the GI50 was inactive: 17.3 µM. `CSc1nc(C)c(Br)c(=O)n1C1OC(COC(C)=O)C(OC(C)=O)C(OC(C)=O)C1OC(C)=O` (stereo not given) was tested, and the GI50 was inactive: > 100 µM. In the case of `Cc1nc2c(=O)n(C)ncc2[nH]1`, the GI50 is reported as inactive: > 100 µM. With `O=C(c1ccc(NCN2C(=O)CCC2=O)cc1)c1ccc(NCN2C(=O)CCC2=O)cc1` the GI50 was inactive: > 100 µM. With `N=C(N)SCCSC(=N)N` the GI50 was inactive: > 100 µM. In the case of `COc1ccc2c3c(coc13)C(CCC(=O)O)CC2` (stereo not given), the GI50 is reported as inactive: > 100 µM. In the case of `O=c1cnn(C2OC(CO)C(O)C2O)c(=S)[nH]1` (stereo not given), the GI50 is reported as inactive: 88.9 µM. `C=CCC1(OC(C)=O)C2OC(=O)C1(O)OCC2O` (stereo not given) was tested, and the GI50 was inactive: > 100 µM. `OC1CCCC1C(O)(C(F)(F)F)C(F)(F)F` (stereo not given) was tested, and the GI50 was inactive: > 100 µM. In the case of `Cn1ncc(NCCn2cnc3c2c(=O)n(C)c(=O)n3C)c(Cl)c1=O`, the GI50 is reported as inactive: > 100 µM. In the case of `Cc1ccc(Nc2nnc3n2S(=O)(=O)c2cc(C)c(Cl)cc2S3)cc1`, the GI50 is reported as inactive: 5.4 µM. `COc1cccc2c1NC(=O)Cc1c-2[nH]c2ccccc12` was tested, and the GI50 was inactive: > 100 µM. With `COC(=O)Cc1c([C@H]2[C@H](CC(=O)OC)c3ccccc3N2C(=O)C(F)(F)F)[nH]c2ccccc12` the GI50 was inactive: > 100 µM. In the case of `CCOC(=O)C12CCC(=O)N1N(C)c1ncccc1N2` (stereo not given), the GI50 is reported as inactive: > 100 µM. In the case of `Cn1cnc([N+](=O)[O-])c1Sc1nc2cc(Cl)c(F)cc2[nH]1`, the GI50 is reported as inactive: 17.6 µM. `N#Cc1cccc2c1Sc1ccccc1N2` was tested, and the GI50 was inactive: 38.8 µM. `CNC(=O)NCNC(=O)NC` was tested, and the GI50 was inactive: > 100 µM. With `OCCCOC(c1ccccc1)(c1ccccc1)c1ccccc1` the GI50 was inactive: > 100 µM. With `O=C(c1ccccc1)c1ccc(OCCOc2ccc(Nc3ccccc3)cc2)cc1` the GI50 was inactive: > 100 µM. In the case of `O=C1c2c(O)cccc2Cc2cccc(O)c21` [ANTHRALIN], the GI50 is reported as inactive: 1.56 µM. With `Cc1nc2ccccc2[s+]c1-c1cnc(NC#N)nc1C(=O)Nc1cccc(Cl)c1` the GI50 was inactive: > 100 µM. With `Cc1ccc(NC(=O)CC2C(=O)Nc3ccccc3S2(=O)=O)c(C)c1` (stereo not given) the GI50 was inactive: 21.4 µM. With `C[C@@H](Oc1ccc(Oc2cnc3ccc(Cl)cc3n2)cc1)C(=O)O` [R(+)XK469] the GI50 was inactive: > 100 µM. `CSc1ccc(-c2cn3ccsc3n2)c(O)c1` was tested, and the GI50 was inactive: > 100 µM. For `O=C(NP(=O)(N1CC1)N1CC1)c1cc(I)ccc1I` [DIIODBENZOTEPH], the GI50 was inactive: > 87.9 µM. With `COc1cccc(N2C(=O)C3CC(CC(C)(C)C)c4c([nH]c5ccccc45)C3C2=O)c1` (stereo not given) the GI50 was inactive: > 10 µM. For `Brc1ccc(C2CC3(c4ccccc4)ON=C(c4ccccc4)N3c3ccccc3S2)cc1` (stereo not given), the GI50 was inactive: > 100 µM. In the case of `Cn1c(=O)sc2cc(C(=S)N3CCN(c4ccccc4)CC3)ccc21`, the GI50 is reported as inactive: 73.1 µM. `CC1(C)[C@@H]2CC[C@]1(C)[C@H](OC(=O)CSC#N)C2` was tested, and the GI50 was inactive: > 100 µM. For `CON(C)C(=O)CNC(=O)OCC1c2ccccc2-c2ccccc21`, the GI50 was inactive: > 100 µM. With `Cc1ccc(N2CCc3c(C)c(C#N)c4nc5ccccc5n4c32)cc1` the GI50 was inactive: > 100 µM. For `C[C@@H]1OC(=O)C[C@H]2CC(=O)N(CCC3CN(S(=O)(=O)C(F)(F)F)c4ccc(Cc5ccc6c(c5)C(CCN5C[C@H]7[C@@H](CC(=O)O[C@H]7C)CC5=O)CN6S(=O)(=O)C(F)(F)F)cc43)C[C@@H]21` (stereo not given in full), the GI50 was inactive: > 100 µM. In the case of `CCCCCCCCCCSC(=O)NC`, the GI50 is reported as inactive: > 100 µM. For `O=c1[nH]c(Br)nc2[nH]nnc12`, the GI50 was inactive: > 100 µM. In the case of `Cc1cc(C)n2c(nc3ccccc32)c1C#N`, the GI50 is reported as inactive: > 100 µM. In the case of `c1cc2c3c(c1)c1cc4c(cc1c[n+]3CC2)OCO4` [ANHYDROLYCORINIUM CHLORIDE], the GI50 is reported as inactive: 5.61 µM. In the case of `Cc1ccc(/C=C/C(=O)c2sc(-n3nc(-c4ccccc4)cc3-c3ccccc3)nc2C)cc1`, the GI50 is reported as inactive: > 100 µM. In the case of `Cc1cc(C)nc(NS(=O)(=O)c2ccc(NC(=O)c3ccc4nc5ccccc5c(Nc5ccc(S(N)(=O)=O)cc5)c4c3)cc2)n1`, the GI50 is reported as inactive: 67.1 µM. With `C/C=C\C(CC(=O)NCC(=O)c1c[nH]c2ccccc12)CC(=O)OC` (stereo not given) the GI50 was inactive: > 100 µM. With `O=C(Nc1ccccc1)c1cc2ccccc2c(/N=N\c2cccc([N+](=O)[O-])c2)c1O` the GI50 was inactive: > 100 µM. In the case of `O=C(NC(Nc1ccc(F)cc1)(C(F)(F)F)C(F)(F)F)C(C(F)(F)F)C(F)(F)F`, the GI50 is reported as inactive: > 100 µM. For `CC[C@]12C=CCN3CC[C@@]4(c5ccc(OC)cc5N(C)[C@H]4[C@@](O)(C(=O)OC)[C@@H]1OC(C)=O)[C@@H]32`, the GI50 was inactive: > 200 µM. In the case of `O=C(c1cccs1)N(C(=S)N1CCN(c2ccccn2)CC1)c1ccccc1`, the GI50 is reported as inactive: 24.3 µM. For `c1ccc(Nc2nnc(-c3ccccc3Nc3ccccc3-c3nnc(Nc4ccccc4)s3)s2)cc1`, the GI50 was inactive: > 100 µM. For `O=C1N/C(=N/N=C/c2cccs2)N/C1=C\c1ccco1`, the GI50 was inactive: > 100 µM.
